# Assay results taken from paper PMC4242493.
# Some of the results follow. The list includes weakly bound sequences.
# Target: MaxL homodimer (UniProt P61244)
# Assay: universal protein-binding microarray (PBM)
# Conditions: PBS-based mixture, 10 nM His-tagged protein dimer, 2% milk, 200 ng/uL BSA, 50 ng/uL salmon testes DNA, 0.02% TX-100; detection with Alexa 488 anti-His …; high values mean tight binding; most listed sequences are background and not binding sites; double strand, one strand shown
# UniProt P61244, sequence (P61244 whole entry): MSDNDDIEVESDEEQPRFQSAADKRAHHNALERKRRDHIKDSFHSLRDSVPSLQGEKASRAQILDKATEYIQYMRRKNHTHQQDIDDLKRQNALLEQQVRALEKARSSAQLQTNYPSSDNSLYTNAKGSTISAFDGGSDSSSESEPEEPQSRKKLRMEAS
row,Sequence,binding signal (normalized occupancy)
1,AAATAATT,0.0755
2,CGAGACGC,0.0734
3,CCGCTCTA,0.0745
4,ATAGGTGG,0.0801
5,CAAGTTGA,0.0728
6,ATAATGAA,0.0754
7,CCAGCGTC,0.0675
8,AAACCTGC,0.0679
9,ACACCTTG,0.0844
10,CTTTTCCC,0.0717
11,ATCACCCA,0.0757
12,ACTACCGC,0.0731
13,TAGGTAGA,0.0713
14,CCACGACC,0.0791
15,CGGCGCAG,0.0668
16,CCACGCGA,0.131
17,TATCGAGA,0.0735
18,AACGGTGG,0.0765
19,CGGACTAG,0.0749
20,TCGGTACA,0.0824
21,ACCGAGAG,0.0705
22,TATTGTGA,0.0784
23,GTGGGTAA,0.0859
24,AGGGCGTA,0.0753
25,GTCCAATA,0.0769

row,Sequence,binding signal (normalized occupancy)
1,GAGTTACC,0.0732
2,GACAACCA,0.0786
3,AACCCAAC,0.0777
4,ACATTACG,0.0819
5,AACGGGTC,0.0725
6,ACCATGTC,0.0794
7,CCCTCTAC,0.0757
8,CCCGTTCC,0.0769
9,GGCACTAA,0.0726
10,GAACCTGC,0.0735
11,ATAGTAAT,0.08
12,GGCGATAA,0.0792
13,AAAGCCTG,0.0738
14,TACCTGCA,0.0797
15,CAGCCTCA,0.0731
16,ACAAACGC,0.0757
17,ATGACGCA,0.08
18,AACGGCGT,0.0724
19,ATCTTGTA,0.0777
20,CCACTAGA,0.0769
21,ACGACGTC,0.0746
22,GAATCGTA,0.079
23,ACTTCATG,0.0783
24,ATGTATAG,0.0889
25,GTACCCAA,0.076

row,Sequence,binding signal (normalized occupancy)
1,ATATTATG,0.0846
2,CTCGCCAG,0.0703
3,GACGCCAC,0.0793
4,CGATTTAG,0.0724
5,GCGTGCCC,0.0965
6,CTTCAGAA,0.0708
7,AATACTGA,0.0797
8,CCGGATTA,0.0735
9,GTGGCGCA,0.0878
10,CTAAAAAA,0.0743
11,ACCATAAC,0.078
12,ACCATCTG,0.0857
13,CGCTAGAA,0.0744
14,CGACATCG,0.0778
15,CCGTAAGG,0.0697
16,ACGTGACG,0.0972
17,GGGTATCA,0.0751
18,TGGAGCCA,0.081
19,ACAGACTC,0.0752
20,CATGTCGC,0.0857
21,CCGAAAAG,0.0704
22,ATTTCCGG,0.0725
23,GGACTGCC,0.0702
24,GGCTCAGA,0.0699
25,GCTTAGTA,0.0746

row,Sequence,binding signal (normalized occupancy)
1,CAATCGAG,0.0731
2,CACCGTGC,0.0868
3,CTTTTAGA,0.0741
4,AGTTAGAA,0.069
5,AACGGGAC,0.0693
6,GGGAAGTA,0.0774
7,TCCGAGCA,0.0717
8,GACTATTA,0.077
9,AGGTAGTC,0.0724
10,ATTCCCAG,0.0688
11,CAGTCGTA,0.067
12,CAGTAATC,0.0757
13,ACGTCCGC,0.0704
14,AGGTCATA,0.0813
15,AAATAACT,0.078
16,CGGTTGCC,0.071
17,CGACATCA,0.0792
18,CCATTAGC,0.0779
19,CCAGATGG,0.0817
20,GTGATGAA,0.0877
21,CTCGAAAC,0.0708
22,CCAGGAAA,0.0715
23,CGGTCCTA,0.0705
24,ATTGAATA,0.0761
25,CCGAGCTC,0.0647

row,Sequence,binding signal (normalized occupancy)
1,ATTAGTAG,0.0794
2,AAGCATCC,0.0817
3,CTTGGTTA,0.0709
4,TATTGAGA,0.0781
5,CTTCCCTC,0.0745
6,ACGAAATG,0.0757
7,AAGATCAC,0.0762
8,CTTCGACA,0.0762
9,AGGAGACA,0.084
10,GAGCACGC,0.094
11,GCTGTAAA,0.0685
12,AATATTGG,0.0822
13,GAAGGGTA,0.0708
14,AACAAAGG,0.0763
15,AGATGCGC,0.077
16,GCGTAGTA,0.0783
17,TTAGCAAA,0.0757
18,AGACATAA,0.0809
19,ATACGGAC,0.0761
20,CACTCACG,0.0888
21,CGTGGTTA,0.0887
22,CCCAGCCG,0.0687
23,ACGTCGGG,0.0757
24,AGCGGGAA,0.0687
25,CCGGAATA,0.0723

row,Sequence,binding signal (normalized occupancy)
1,AGACCCAC,0.0763
2,AGTTGTAC,0.0739
3,TCGACAAA,0.0722
4,ATTGAGGC,0.0723
5,CTACGGTA,0.0724
6,ATGGATAC,0.0808
7,TAGTAGCA,0.0819
8,GTAGTATA,0.0841
9,ACGCCCTC,0.0818
10,GTCCGGAC,0.0699
11,GTGTCTCA,0.0762
12,GGTGGAAC,0.0709
13,AGCTACGC,0.0651
14,CTCAATCA,0.0801
15,GAGAGTAA,0.0745
16,CTGAAACA,0.0774
17,AGCACCTA,0.0792
18,AGCTCTAT,0.0723
19,CCGCGGTC,0.0663
20,CTACTTTA,0.0795
21,AGCCCTTC,0.0713
22,GCGAATCA,0.0746
23,ACGTGAGC,0.107
24,AATCACAC,0.0864
25,AACTCCTT,0.0715

row,Sequence,binding signal (normalized occupancy)
1,AACGTATC,0.0812
2,AAGCGTTA,0.0738
3,ACTTCGTC,0.0683
4,AGCGAGGG,0.0707
5,ACACGGAA,0.0755
6,TCCGTCGA,0.0681
7,GCTTCAAA,0.0732
8,CCAGGTAG,0.0757
9,ACGTGATC,0.108
10,GTATGAGA,0.0832
11,CTGAGCAA,0.0695
12,TAGGTTGA,0.0752
13,CAGGCGCG,0.0807
14,ATCCGGCC,0.0704
15,AGTGGAAC,0.0693
16,ATATGAGA,0.0843
17,AGAGGTGG,0.0768
18,ATAAATCG,0.073
19,CAAGAGGA,0.0733
20,ATTGTCTC,0.0747
21,AAAGACGC,0.0704
22,ACGCGTGA,0.114
23,GTGAGCGA,0.0747
24,ACAGTGCC,0.0757
25,GCAATTGA,0.0758

row,Sequence,binding signal (normalized occupancy)
1,AGTACATG,0.0893
2,AGAAACAA,0.0746
3,ATTATCCC,0.0812
4,ATGGGTAG,0.0856
5,GAAAGTAC,0.07
6,TACTCACA,0.0797
7,CTAATATA,0.0824
8,AAGGAGAT,0.0716
9,GAATCCCA,0.083
10,GTCATCGA,0.0798
11,GCTGCTCC,0.0674
12,ATGATCTG,0.0874
13,AGCACCAC,0.0757
14,AAAAATCA,0.0774
15,ACCGTTCT,0.076
16,AACGAACT,0.0709
17,CCAAAGAC,0.0698
18,CGCCCCAA,0.0738
19,GATGCTCC,0.0753
20,TGTCATAA,0.0825
21,CCATGTGC,0.209
22,AGACAGGG,0.0719
23,GCGGGCCA,0.0659
24,GCCGCGTA,0.0703
25,CCTTATTA,0.0769

row,Sequence,binding signal (normalized occupancy)
1,AGAAATGC,0.0774
2,GCACGCGA,0.109
3,CGCGGCCG,0.0698
4,GACAATAA,0.0828
5,ATTCAAAG,0.0759
6,ATCTCAGG,0.0689
7,AAATTGCA,0.0733
8,ATGGGATG,0.0929
9,CAGGCCGG,0.0694
10,TATGTTGA,0.0883
11,CCTAATAG,0.0773
12,TAATCTAA,0.0722
13,GGGGTAAC,0.0823
14,ACTCACAT,0.0886
15,CCGGCATC,0.0727
16,CTTTAAAG,0.0726
17,ACATTAAC,0.0857
18,ATAATTCA,0.0809
19,GCGGCCAA,0.0703
20,CATACAAA,0.0762
21,AGTGTATC,0.0882
22,AACACCCG,0.0752
23,CTGGAAGC,0.0691
24,AACGTTTA,0.0757
25,AATGCACT,0.0779

row,Sequence,binding signal (normalized occupancy)
1,ATGTCGAC,0.0863
2,CATAATGC,0.0816
3,ACTGGGCC,0.0687
4,CACTATCA,0.078
5,TCGCACAA,0.0786
6,CTCTGCGC,0.0691
7,GGCCGGCC,0.0653
8,GTCTGCAC,0.0774
9,ACACCCTG,0.0751
10,AATGTCCA,0.0813
11,TAGACAAA,0.0715
12,AAGTGTGT,0.0824
13,ACGCGTCG,0.0769
14,CCGTGAGG,0.0784
15,AACCCTAC,0.0811
16,AAAATAAT,0.0717
17,CTAACATC,0.0796
18,CAGCTCCC,0.0688
19,GCCGCCAC,0.0728
20,ACCCGCGT,0.075
21,GCTTTTTA,0.0721
22,AATTTCCA,0.0826
23,CCGTTTCA,0.0737
24,ACACGCGA,0.116
25,AAGCCCCC,0.0706

row,Sequence,binding signal (normalized occupancy)
1,CGCGGGGC,0.0766
2,GTTGTTTA,0.0784
3,TGTAAAAA,0.0837
4,AACTACGC,0.0734
5,GTGTAGAA,0.0867
6,GCCTCGTA,0.0715
7,CCCTCTCA,0.0753
8,AATCCGAA,0.0699
9,GACGCACC,0.0708
10,ACCTTTAT,0.0781
11,CAGTCTGA,0.0736
12,AATCCGGA,0.0755
13,ACTTGAAT,0.0746
14,CCCTTATC,0.0746
15,CACACAAC,0.0831
16,AACTTTAT,0.0745
17,CGATGGTA,0.074
18,ATTATGCG,0.0831
19,AGTTCATG,0.0778
20,GTGGCTAA,0.0728
21,ATTGAGTG,0.0821
22,ACGGAAGT,0.0703
23,AGTATAAT,0.0774
24,CTAATCTA,0.075
25,AAGCAAGG,0.0721

row,Sequence,binding signal (normalized occupancy)
1,ACCTGGAC,0.0783
2,TCTGCCCA,0.0744
3,CGGAGGAA,0.0675
4,AACGAAGA,0.0711
5,TGTAGGAA,0.0767
6,CGATTTTC,0.0726
7,AATTATGT,0.0811
8,GGCAGGGA,0.0782
9,ATAATGCG,0.0847
10,GCGCACTA,0.0726
11,AATTCCCA,0.0839
12,GCAGAACC,0.0764
13,GATGTTGA,0.0826
14,ACAGACCG,0.075
15,ACTGGAAA,0.0733
16,GGGCTTTA,0.0699
17,ACGCGTCT,0.0797
18,GATCACGC,0.0977
19,ACAAGCTA,0.0725
20,CATGGGCC,0.0825
21,TGAAACCA,0.0777
22,AACATAAC,0.0778
23,ACGTAGGG,0.0764
24,CGGTCCTC,0.0699
25,AGCCGTAT,0.0707

row,Sequence,binding signal (normalized occupancy)
1,CATAAATA,0.0905
2,AGTCACGG,0.0774
3,ATCGTGCC,0.08
4,CCGACCCA,0.0764
5,CACTAAGC,0.0716
6,ATAATCGG,0.0725
7,AATTCTCC,0.0715
8,CTCTATTC,0.0729
9,GGAACCGA,0.0693
10,ACACGATG,0.0969
11,ATGAACAA,0.0807
12,AGTCCGTG,0.0793
13,ATCCATCG,0.0772
14,AGACCGGC,0.0685
15,AATTGAGC,0.0717
16,CAGGCCAA,0.0649
17,ACATGGGG,0.101
18,CGGTGTAC,0.0764
19,GTTAAAAC,0.0728
20,ACTCCTGG,0.0701
21,CGTCTGGA,0.0713
22,CAGTATCG,0.0741
23,CAAATGGA,0.0758
24,GTAGGGAA,0.0754
25,CACGGGCG,0.081

row,Sequence,binding signal (normalized occupancy)
1,GATCGATA,0.0847
2,ATTCCAGC,0.0738
3,GACCCCGA,0.0729
4,CCTAACTC,0.0729
5,CATCCCCC,0.0835
6,CATCCGCG,0.0845
7,ACATGGTA,0.104
8,GAGCTTCC,0.0662
9,AACAGGCG,0.0783
10,ATTCTGCA,0.0731
11,GGACTCAC,0.0732
12,CAAAGTTC,0.0716
13,AGTATCAT,0.0853
14,CGCCATTA,0.0739
15,GAATTATC,0.0819
16,GCCCCAAA,0.0667
17,CTATACAG,0.0822
18,ACGTTGAA,0.083
19,AATGCTCG,0.0783
